The source of these data is PubChem BioAssay AID463173 (ICCB-Longwood Screening Facility, Harvard Medical School, 2010).

Among all 52,000 compounds or so, about 4,300 (8.3%) were called active. Rule as the data show it: active = survival mostly below about 52% (no sharp cut-off); inactive = mostly above about 56%. The list shows a part of the results.

This assay relates to DeltatarO mutant. Kind of assay: S. aureus survival, RN4220 and DeltatarO strains – OD600, teichoic acid synthesis inhibitors, primary screen (AID 463173). As to conditions: S. aureus RN4220 wild type/DeltatarO growth, OD600, 18 h, stronger effect = lower value, screened at 18.75 µg/mL (by protocol).
Turning to `COc1cc(-c2ccno2)ccc1S(=O)(=O)N1CCN(c2ccccc2F)CC1`, the survival is inactive: 70%.
Take `CCCN(CCC)C(=O)CSc1nc2ccccc2c(=O)n1Cc1ccco1`: the survival is inactive: 83%.
Take `COc1ccc(CC(=O)NCc2nc3cccnc3n2Cc2ccc(C)cc2)cc1`: the survival was inactive: 92%.
Then `CCOC(=O)c1cc(S(=O)(=O)N2CCN(c3cc(C)ccc3C)CC2)[nH]n1`, with inactive: 77%.
Regarding `CCC1=NN(C(=O)COc2ccccc2C)C(O)(c2ccncc2)C1` (configuration not stated), the survival is inactive: 90%.
Regarding `Cc1cccc(C)c1N1CC(c2nc3ccccc3n2CC(=O)OC(C)C)CC1=O` (configuration not stated), the survival was inactive: 56%.
As for `CCC1CCCCN1C(=O)CSc1ncc(-c2ccc(F)cc2)n1CC` (configuration not stated), the survival is inactive: 79%.
The result for `COc1ccc(S(=O)(=O)NCC(c2ccco2)N2CCOCC2)cc1` (configuration not stated) reads inactive: 102%.
The result for `Cc1cc(C)cc(NC(=O)CSc2oc(-c3cccs3)nc2S(=O)(=O)c2ccccc2)c1` reads inactive: 138%.
Consider `CC1CCCCN1C(=O)C12CCC(C)(C(=O)C1)C2(C)C` (configuration not stated), for which the survival was inactive: 97%.
Take `Fc1ccc(-c2cc(-c3ccccc3)c3c(n2)-c2cc(F)ccc2OC3)cc1`: the survival is inactive: 76%.
`Cc1ccc(-c2c(C)n3c4c(=O)n(C)c(=O)n(C)c4nc3n2-c2cccc(O)c2)cc1`: the survival is inactive: 111%.
For `Cc1c(NC(=O)c2ccc(OC(C)C)cc2)cccc1-c1nc2ncccc2o1`, the survival is inactive: 47%.
Take `Cc1ccc(S(=O)(=O)c2cn(CC(=O)Nc3ccc(C)c(Cl)c3)c3ccc(C)cc3c2=O)cc1`: the survival is inactive: 96%.
Turning to `Cn1cnc2sc3c(c2c1=O)CCCC3`, the survival is inactive: 97%.
The result for `Cc1cc(F)c(F)c(C(=O)N2CCCCCC2)c1Cl` reads inactive: 108%.
The result for `COc1cccc(C(=O)NCCSc2c(-c3ccc(F)cc3)[nH]c3ccccc23)c1OC` reads inactive: 52%; that for `Cc1ccc(CNC(=O)C2CCCN(S(=O)(=O)c3ccc4c(c3)oc(=O)n4C)C2)cc1` (configuration not stated), inactive: 71%.
Regarding `O=C1CN(C(=O)c2ccc(S(=O)(=O)N3CCCCC3)cc2)C(c2ccc(F)cc2)c2cc(F)ccc2N1` (configuration not stated), the survival was inactive: 55%.
Take `Cc1cc(C)cc(-n2nnc(-c3nc(-c4ccc5c(c4)OCO5)no3)c2C)c1`: the survival was inactive: 77%.
For the molecule `CC(=O)c1ccc(NC(=O)c2cn3c4c(ccc(Cl)c4c2=O)OC(C)C3)cc1` (configuration not stated), the survival was inactive: 86%.
With `CCC(=O)N1c2ccc(S(=O)(=O)N3CCN(c4ccccc4)CC3)cc2CC1C` (configuration not stated), the survival was inactive: 99%.
The result for `COc1cc2c(=O)n(CCC(=O)NCC3CCCO3)c(=O)n(CC(=O)Nc3ccc(C)cc3)c2cc1OC` (configuration not stated) reads inactive: 92%; that for `Cc1ccc(S(=O)(=O)C(CNC(=O)C(=O)NCc2ccc(Cl)cc2)c2cccs2)cc1` (configuration not stated), inactive: 80%; that for `Cc1ccc(C(=O)NCCn2c(C)cc3ccccc32)cc1C`, inactive: 53%.
For `COc1ccc(NC(=O)Cn2c(=O)oc3cc(S(=O)(=O)NC4CCCC4)ccc32)cc1OC`, the survival is inactive: 93%.
The result for `CCCNC(=O)c1ccc2c(c1)ncn2-c1ccc(C)cc1C` reads inactive: 75%.
Then `COc1ccc(CNc2ncnc3onc(C)c23)cc1`, with inactive: 74%.
Then `CCc1ccc(CNC(=O)c2ccc3c(c2)N=C(C)c2cc(C)ccc2S3)cc1`, with inactive: 68%; and `CN(C)CCNC(=O)c1ccc(-n2c(-c3ccccc3)cc3c2CCCC3)cc1`, with active: 33%; and `CC(C)Oc1ccc(CNC(=O)CCCn2c(=O)c3cccn3c3ccccc32)cc1`, with active: 45%.
As to `CCCS(=O)(=O)Nc1cc(-c2cn3cccc(C)c3n2)ccc1C`, the survival is inactive: 59%.
Regarding `COc1ccc(-c2cn3nc(N4CCC(C(=O)NCc5ccccc5F)CC4)sc3n2)cc1`, the survival is inactive: 91%.
Regarding `Cc1ccc(NCc2cccn2-c2nnc(N3CCC(C(=O)NC(C)C)CC3)s2)cc1`, the survival was inactive: 90%.
Regarding `Cc1ccc(S(=O)(=O)N2CCCc3cc(NS(=O)(=O)c4ccc(F)c(C)c4)ccc32)cc1`, the survival was inactive: 76%.
Take `COc1ccc(-c2cc(C(F)(F)F)c(C#N)c(SCC(=O)Nc3ccc(F)cc3)n2)cc1`: the survival was inactive: 69%.
On to `Cc1ccc(C(=O)CSc2nc(C)cc(C)c2C#N)cc1`, for which the survival was inactive: 94%.
The result for `O=C(CSc1nc2ccccc2c(=O)n1-c1ccccc1)N1CCOCC1` reads inactive: 85%; that for `CCOc1ccc(-n2c(SCC(=O)N3CCCC3)nc3c([nH]c4ccccc43)c2=O)cc1`, inactive: 98%.
The result for `CCN(c1cc(C)cc(C)c1)S(=O)(=O)c1nnc(NC(=O)c2cccs2)s1` reads active: 25%; that for `CCOc1ccc(-n2c(CCC(=O)O)ccc2-c2ccc(Br)cc2)cc1`, active: 48%.
The result for `Cc1nc(-c2ccccc2)sc1-c1ccc(SCC(=O)NCc2ccc(F)cc2)nn1` reads inactive: 53%.
`Cn1c(=O)c2c(SCC(=O)N3CCc4ccccc43)nc(-c3ccccc3Cl)nc2n(C)c1=O`: the survival was inactive: 82%.
The result for `Cc1ccc(C(C)C)c(OCC(=O)Nc2cccc(NC(=O)c3ccco3)c2)c1` reads active: 10%; that for `CCC(CC)C(=O)NC1CC(=O)N(c2ccc3c(c2)OCCO3)C1` (configuration not stated), inactive: 116%; that for `Cc1ccc(-c2nc3cccnc3s2)cc1NC(=O)C(C)C`, inactive: 112%.
The result for `Cc1ccc(-c2ccc(=O)n(Cc3cc(C)ccc3C)n2)cc1` reads active: 57%; that for `COc1ccc(C(=O)c2cn(CC(=O)Nc3ccc4c(c3)OCCO4)c3ccc(OC)cc3c2=O)cc1`, inactive: 85%.
In the case of `Cc1oc2ccc(O)c(CN(C)Cc3ccccc3)c2c1C(=O)Nc1cccc(C(F)(F)F)c1`, the survival is active: 6%.
Then `COc1ccccc1OCCn1c(-c2ccc(Cl)cc2)nc2ccccc2c1=O`, with inactive: 77%.
Then `O=C(CSc1nc(-c2ccccc2)no1)N1CCN(c2ccccc2F)CC1`, with inactive: 94%.
Then `COc1cccc(C2=CC(c3ccc(OC)c(OC)c3OC)n3ncnc3N2)c1` (configuration not stated), with inactive: 91%; and `O=C(Cn1c(=O)nc(-c2ccccc2)c2ccccc21)Nc1ccc(Cl)c(C(F)(F)F)c1`, with inactive: 90%.
With `CCN(C(=O)Cc1nc(-c2ccc(OC)cc2)no1)c1cccc(Cl)c1`, the survival was inactive: 83%.
Then `CCc1ccc(CNC(=O)CCSCc2ccccc2F)cc1`, with inactive: 96%.
The result for `Cc1cccc(NS(=O)(=O)c2ccc3[nH]c(=O)ccc3c2)c1C` reads inactive: 96%; that for `COc1ccccc1N1CCN(S(=O)(=O)c2c(C)sc3ncn(CC(=O)Nc4cccc(Cl)c4)c(=O)c23)CC1`, inactive: 75%.
